Results taken from the supplement of paper PMC3334620.
The full ranking holds about 33,000 sequences; the median of “E-score (-0.5 to 0.5)” is about -0.041, and the highest 2% start at about 0.37. The list shows a part of the results.

target: T1, Ecm22 (UniProt Q05958); test: PBM E-score (8-mer binding enrichment) (E-score (-0.5 to 0.5)); higher = stronger / more preferred TF binding; most listed sequences are background and not binding sites; conditions: protein concentration: 200 nM; construct: GST-full length
T1 sequence: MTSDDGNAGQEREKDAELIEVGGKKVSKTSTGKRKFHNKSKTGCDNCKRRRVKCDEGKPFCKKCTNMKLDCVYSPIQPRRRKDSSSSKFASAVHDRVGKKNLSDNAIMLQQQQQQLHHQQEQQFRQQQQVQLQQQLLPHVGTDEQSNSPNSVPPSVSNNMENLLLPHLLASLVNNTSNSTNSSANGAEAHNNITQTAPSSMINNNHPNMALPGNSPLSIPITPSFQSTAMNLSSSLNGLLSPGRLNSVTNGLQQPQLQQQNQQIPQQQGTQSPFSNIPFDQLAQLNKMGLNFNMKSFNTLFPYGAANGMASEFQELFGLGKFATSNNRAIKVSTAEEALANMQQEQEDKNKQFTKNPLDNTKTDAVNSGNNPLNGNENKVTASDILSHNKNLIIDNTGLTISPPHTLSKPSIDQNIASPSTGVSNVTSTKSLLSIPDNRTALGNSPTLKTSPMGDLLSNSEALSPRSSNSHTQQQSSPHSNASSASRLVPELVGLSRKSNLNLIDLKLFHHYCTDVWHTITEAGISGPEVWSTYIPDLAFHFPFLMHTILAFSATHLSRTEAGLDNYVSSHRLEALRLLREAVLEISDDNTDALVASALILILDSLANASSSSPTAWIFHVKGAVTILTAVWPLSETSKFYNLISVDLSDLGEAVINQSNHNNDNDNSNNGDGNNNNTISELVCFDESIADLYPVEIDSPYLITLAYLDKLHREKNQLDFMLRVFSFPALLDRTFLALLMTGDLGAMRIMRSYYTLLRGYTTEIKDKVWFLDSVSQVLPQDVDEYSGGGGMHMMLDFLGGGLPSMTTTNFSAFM
Outline: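 PURExpress in vitro transcription/translation supplied GST-tagged yeast transcription factors, either full-length or DNA-binding domain. Applied at about 100-200 nM to universal all-10-mer Agilent arrays double-stranded by primer extension, the bound protein was detected with fluorescent anti-GST. E-scores, modified Wilcoxon-Mann-Whitney statistics, were given by the Universal PBM Analysis Suite to ungapped eight-base words pooled with their reverse complements after masliner normalisation.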

| Sequence | PBM E-score |
| --- | --- |
| CACAGAAG | -0.195 |
| ACGATATA | 0.314 |
| TCATCCGA | 0.245 |
| CCGACGCG | 0.218 |
| TAGCAGCA | -0.154 |
| ACATGCTC | -0.0921 |
| TAATGGGA | -0.343 |
| ATATAAGC | 0.0914 |
| CGGGCTTC | -0.0188 |
| ACAGGAAC | 0.0912 |
| TTCATAAA | -0.0521 |
| GGCGACGA | 0.0273 |
| AAATGCGA | 0.222 |
| ACGTGGCA | -0.186 |
| AGGTTGTA | 0.101 |
| ACCCACGG | -0.212 |
| CCGCCTCG | 0.299 |
| CAATTGTC | -0.06 |
| ACACTACG | 0.0807 |
| ATCTCGGA | 0.203 |
| GCATTGTA | -0.23 |
| GACTTATA | 0.196 |
| AGTGTCGA | 0.0924 |
| AATGTCGA | -0.0242 |
| GGAAGAAC | 0.143 |

| Sequence | PBM E-score |
| --- | --- |
| CGACGACA | 0.259 |
| AGGAGTCA | -0.105 |
| ACCACGGC | -0.209 |
| CGTTCGAG | 0.219 |
| ACGACTAC | 0.333 |
| GCTGTGAC | 0.0827 |
| TCTGTTCA | -0.144 |
| CTATAGGA | -0.138 |
| ATCCTCCA | -0.0995 |
| ACACCCCA | -0.198 |
| CAACAGTG | -0.121 |
| GAATTATA | 0.123 |
| ACTATGAG | -0.208 |
| CGATTGAG | 0.189 |
| CTACTACA | -0.0211 |
| GCCAGAGC | -0.224 |
| CCCGCCAA | -0.0941 |
| GGCGCAAA | -0.0854 |
| AGCCCAAA | -0.169 |
| CGGGCGGC | -0.0837 |
| ACAGCAGT | 0.044 |
| CGAAGCGA | 0.278 |
| AAACTCAA | 0.0502 |
| ATGTTTCC | -0.0668 |
| AGAGGGAC | -0.0884 |

| Sequence | PBM E-score |
| --- | --- |
| CGTGGGTC | -0.168 |
| AAGTGACT | -0.103 |
| CCTGGTGA | -0.168 |
| CAATCTCC | -0.234 |
| AACCCGAC | 0.183 |
| CTACTCAC | -0.223 |
| ATTCGGGC | -0.00721 |
| ACTCCACA | -0.125 |
| AACGGTTG | 0.132 |
| ACGAATTA | 0.339 |
| AGACGGAA | -0.0621 |
| GAGTATAA | 0.127 |
| TCCCTAAA | -0.00662 |
| AAAGTGAA | -0.0975 |
| GTAATTTA | 0.177 |
| GCGCGGAC | -0.0907 |
| ACCTGAAT | 0.0533 |
| CCCAATGC | -0.289 |
| CCCTGGTC | -0.227 |
| ACCAAAGG | -0.164 |
| CGTTTTAA | 0.267 |
| CTAGATTC | -0.0775 |
| ATCGAACA | 0.0719 |
| CTAACTCA | -0.287 |
| GCGTTCGA | 0.0441 |

| Sequence | PBM E-score |
| --- | --- |
| ACATTTTA | 0.037 |
| CGGATGGC | -0.108 |
| ATGAAGAA | 0.00943 |
| GCTCATAC | 0.0202 |
| GAAAGCCC | 0.0946 |
| AGTCTATG | -0.308 |
| CTGCGGTC | -0.0324 |
| TATGACGA | 0.124 |
| ATCAAGCA | 0.105 |
| CCAGTATA | -0.0943 |
| ATCCATAG | -0.156 |
| CCTTAAAA | -0.226 |
| GGCTGGTA | -0.158 |
| AGTTGTGC | 0.136 |
| AGGTGCAG | -0.235 |
| CCATCGGG | 0.0772 |
| CCGATTCC | -0.00271 |
| ATACTGGC | -0.211 |
| GAATTCTC | 0.204 |
| AGAGCCCA | -0.15 |
| AACGTGGT | 0.0471 |
| GATCCACC | -0.149 |
| AGCTTATG | -0.0352 |
| CTGGCAAG | -0.302 |
| CAGTAGAG | -0.141 |

| Sequence | PBM E-score |
| --- | --- |
| ATTATCTC | 0.0827 |
| AGAGCCGG | -0.129 |
| CGGTTCGA | 0.268 |
| TAAGGAAA | -0.0904 |
| ATTGTTAC | 0.0823 |
| GGTGCAAC | 0.0204 |
| GAGTCGGA | 0.0868 |
| CACGACCG | 0.0498 |
| AGGACGCG | -0.0792 |
| ACGCCGAG | 0.159 |
| AGCTCGCG | 0.249 |
| AAAAGACG | -0.0186 |
| ACAAGTTA | -0.0302 |
| ACGTCTGC | -0.158 |
| ATTGCACG | 0.146 |
| CTCCCTGC | -0.278 |
| GAGGACGA | 0.167 |
| ACACCTCG | 0.169 |
| TGATGAAA | -0.103 |
| GCAGGAAA | -0.0907 |
| CTCAGTTA | -0.187 |
| CCGGTAGC | -0.261 |
| AATTAGTA | 0.0162 |
| AGTCTCTA | -0.0503 |
| CGAAGAAC | 0.135 |

| Sequence | PBM E-score |
| --- | --- |
| CGGTCGAG | 0.132 |
| GTGCGAGA | 0.248 |
| CTCTCTCC | -0.127 |
| CCCTATGA | -0.194 |
| CCATTGCG | -0.109 |
| CTCATTAA | -0.231 |
| TCATTGGA | -0.0702 |
| AAGGCACT | -0.111 |
| TGAGACAA | -0.105 |
| GAACCATA | -0.0553 |
| CCTTGAAA | -0.0768 |
| ATGCGGTG | -0.176 |
| ATAAGCAA | -0.0928 |
| TGAGTACA | -0.0329 |
| AACACTAT | 0.129 |
| AGTGTCAC | -0.0644 |
| CCGTGCAA | 0.0357 |
| AGAGTAAG | -0.271 |
| GGATGACC | -0.138 |
| AGCAGCAC | -0.12 |
| TACAACTA | -0.103 |
| ATGAAACA | 0.0589 |
| CTGCTGAA | -0.183 |
| AGGGGTCG | -0.0111 |
| CTGTCGTC | 0.161 |

| Sequence | PBM E-score |
| --- | --- |
| GACCAGCC | -0.173 |
| CAGCGTTC | -0.025 |
| GCATGGAA | -0.0545 |
| AATGTATA | 0.244 |
| ACGTGACA | 0.183 |
| ACTACTCT | -0.173 |
| GACCGAGC | 0.27 |
| ACTGGACA | -0.105 |
| GTCCGTCA | -0.131 |
| AGCGTCTA | -0.273 |
| ACACCGAA | 0.061 |
| AGAAACCT | -0.26 |
| AAAATGGA | -0.00366 |
| CTTCAAAA | -0.206 |
| CAGTCAGC | -0.199 |
| CATGTACG | 0.399 |
| GAATCGAA | 0.11 |
| ACTCAATA | -0.0603 |
| GCTTTATA | -0.0972 |
| GACCGACA | 0.237 |
| GCAATAAC | -0.0825 |
| ATAGTATA | 0.211 |
